The campaign covered roughly 280,000 compounds. About 540 (0.19%) were called active. The shares of active, inactive and inconclusive entries below differ from those in the screen. The call rests on the fitted dose curve; in most records, active means well fitted activation curve with a large enough effect; inconclusive means small, poorly fitted or top-dose-only effect; inactive means flat fitted curve, though single readings scatter. A potency beside an inconclusive call is a rough fit, not a confirmed value.
assay: Quantitative High-Throughput Screen for Regulators of Epigenetic Control; conditions: murine LDR cells, GFP reporter derepression, 30 h; GFP activation: at 53.9 µM (top of the series); further: nearly all actives have a fitted effect of over 60% in size; on GFP activation: % of control where 0% means no effect
Outline: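 Readout is the number of GFP-expressing murine LDR cells, counted by cytometry following washing. Cells were treated with compound for 30 h at 37 C; the stably integrated CMV-GFP locus is normally silent.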
Potency means the concentration at half of the fitted maximal effect; tags describe the fitted curve by direction and shape.

Compound	Potency	GFP activation
Cc1cccc(C(=O)Nc2ccccc2-c2nnn(CC(=O)Nc3ccc4c(c3)OCCO4)n2)c1	inconclusive: 35.5 µM [activator, single point]	–
Cc1ccc(CNc2nc3ccc(Cl)cc3n3nnnc23)cc1	inconclusive: 35.5 µM [activator, single point]	–
COc1ccccc1C1N(c2ccc(Cl)cc2)C(=O)C2CCCN21 (stereo not drawn)	inconclusive: 35.5 µM [activator, single point]	–
Fc1ccc(COc2ccccc2C(=S)N2CCCC2)cc1	–	inactive: 2.29%
Cc1ccc(S(=O)(=O)c2nc(-c3cccs3)oc2SCC(=O)Nc2cc(C)cc(C)c2)cc1	inconclusive: 35.5 µM [activator, single point]	–
CC(=O)N1N=C(c2ccccc2)OC1c1ccc([N+](=O)[O-])s1 (stereo not drawn)	inconclusive: 6.31 µM [activator, single point]	–
CCCn1c2c(c(=N)c3c1CCC3)CCC2	–	inactive: -4.14%
Cc1ccc(C)c(Cn2nnc(C(=O)NCc3ccccc3)c2N)c1	inconclusive: 25.1 µM [activator, single point]	–
O=[N+]([O-])c1cccc(-c2ccc(/C=N/n3c(-c4ccccc4)n[nH]c3=S)o2)c1	inconclusive: 35.5 µM [activator, single point]	–
CCOc1ccc(C2C(C#N)=C(N)N3C(=C2C#N)Sc2ccccc23)cc1 (stereo not drawn)	inconclusive: 28.2 µM [activator, single point]	–
CCc1ccc(NS(=O)(=O)c2ccc3[nH]cc(C(=O)NC4CCCC4)c(=O)c3c2)cc1	inconclusive: 0.112 µM [activator, full curve, poor fit]	–
COc1ccc(-c2noc(C3CC(=O)N(c4ccc(C)c(F)c4)C3)n2)c(OC)c1 (stereo not drawn)	–	inactive: 4.41%
COC(=O)/C(=C\c1cc(OC)c(OC)c(OC)c1)c1nc2ccccc2[nH]1	inconclusive: 31.6 µM [activator, single point]	–
Cc1ccc(-c2cc(-c3ccc(Cl)cc3)c(C#N)c(N)n2)o1	inconclusive: 15.8 µM [activator, single point]	–
COc1ccccc1CCNC(=O)Cc1c(C)c2ccc(O)cc2oc1=O	inconclusive: 20 µM [activator, single point]	–
COc1ccc(/C=C2\SC(=O)N(CC(=O)Nc3cccnc3)C2=O)cc1OC	–	inactive: 5.14%
CC(=O)c1ccc(NC(=O)CC(c2cccs2)N2Cc3ccccc3C2=O)cc1 (stereo not drawn)	inconclusive: 35.5 µM [activator, single point]	–
CCOc1ccc(-c2cc(-c3nc(-c4ccc(OC)c(OC)c4)no3)[nH]n2)cc1	inconclusive: 35.5 µM [activator, single point]	–
COc1ccc2occ(CC(=O)Nc3ccc(S(=O)(=O)Nc4nc(C)cc(C)n4)cc3)c2c1	inconclusive: 6.31 µM [activator, single point]	–
COc1cc(C(C[N+](=O)[O-])c2c(C)[nH]c3ccccc23)ccc1O (stereo not drawn)	–	inactive: 1.06%
Cc1ccc(/C=C2/NC(=O)N(Cc3ccccc3F)C2=O)s1	active: 3.55 µM	–
COC(=O)c1cc(NC(=O)Cn2nc(-c3ccc(C)c(C)c3)ccc2=O)cc(C(=O)OC)c1	inconclusive: 31.6 µM [activator, single point]	–

Compound	Potency	GFP activation
CCOc1ccc(NC(=O)c2cc(=O)c3ccc(C)c(C)c3o2)cc1	active: 20 µM	–
N#CC1=C(N)C(C#N)(C#N)[C@H](c2cccnc2)[C@H]2CN(C(=O)OCc3ccccc3)CC=C12	inconclusive: 31.6 µM [activator, single point]	–
CNC(=O)c1c(NC(=O)c2ccc(S(=O)(=O)N3CCCc4ccccc43)cc2)sc2c1CCN(C)C2	active: 22.4 µM	–
COc1ccc(NC(=O)C(Cl)=C(Cl)Cl)cn1	–	inactive: 3.99%
Cc1ccccc1CN1c2ccccc2-c2nc(SCC(=O)NCc3ccccc3)ncc2S1(=O)=O	inconclusive: 35.5 µM [activator, single point]	–
Cc1c(C(=O)NCCc2ccc(Cl)cc2)sc2nc3n(c(=O)c12)CCCC3	inconclusive: 20 µM [activator, single point]	–
Cc1nc(-c2coc3c(CN(C)C)c(O)ccc3c2=O)cs1	–	inactive: 2.38%
O=C(Nc1ccc2oc(-c3ccncc3)nc2c1)c1ccc2c(c1)OCCO2	inconclusive: 28.2 µM [activator, single point]	–
O=C(c1ccc2c3n(nc2c1)-c1ccc(Cl)cc1CO3)N1CCCCC1	inconclusive: 15.8 µM [activator, single point]	–
CCOC(=O)CSc1nnc(-c2ccco2)n1-c1ccccc1	inconclusive: 31.6 µM [activator, single point]	–
Nc1nc(N)c(C=Nc2ccc(Br)cc2)c(Nc2ccc(Br)cc2)n1	inconclusive: 35.5 µM [activator, single point]	–
Cc1cccc(-c2noc(-c3ccc(N4CCN(C)CC4)c([N+](=O)[O-])c3)n2)c1	inconclusive: 35.5 µM [activator, single point]	–
Cc1ccc(NC(=O)c2ccc(NCCc3ccccc3)c([N+](=O)[O-])c2)cc1F	active: 12.6 µM	–
COc1cccc2sc(N(CCN(C)C)C(=O)/C=C/c3cccs3)nc12	inconclusive: 31.6 µM [activator, single point]	–
O=C(N/N=C/c1cc(Br)c(Br)o1)c1cccnc1	–	inactive: 0%
CCOc1ccc(-n2c(SCC(=O)Nc3ccc(F)cc3)nc3c([nH]c4ccccc43)c2=O)cc1	–	inactive: 4.17%
Cc1cc(N=Cc2c(O)n(-c3cccc(C(F)(F)F)c3)c(=O)c3ccccc23)no1	inconclusive: 22.4 µM [activator, single point]	–
N#C/C(=C(/O)CSc1ccccn1)c1nc2ccccc2s1	inconclusive: 25.1 µM [activator, single point]	–
Cc1cccc(N2C(=O)CC(Sc3nnc(C)s3)C2=O)c1 (stereo not drawn)	–	inactive: -1.04%
CC(=O)c1ccc(-n2nnnc2SCC(=O)Nc2cccc(NC(=O)c3ccco3)c2)cc1	inconclusive: 20 µM [activator, single point]	–
O=C(COC(=O)c1c(Cl)ccc(Cl)c1Cl)NC1CCS(=O)(=O)C1 (stereo not drawn)	inconclusive: 8.91 µM [activator, partial curve]	–

Source: PubChem BioAssay AID1865 (National Center for Advancing Translational Sciences (NCATS), 2009)
